# Data published in paper PMC4336329 (PLoS ONE, 2015).
# Hit rate of the full screen: of about 310,000 compounds, about 14,000 (4.5%) showed an effect of 50% or more. Effects have a minus sign here. This is one part of the list.
# Molecular target: human ether-à-go-go-related gene (hERG) potassium channel (human, UniProt Q12809)
# Assay: primary screen, population patch clamp on CHO cells stably expressing hERG
# 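Note: peak tail current of the secondary pulse compared with the same well before compound.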
# Chain of human ether-à-go-go-related gene (hERG) potassium channel (Q12809 whole entry, looked up): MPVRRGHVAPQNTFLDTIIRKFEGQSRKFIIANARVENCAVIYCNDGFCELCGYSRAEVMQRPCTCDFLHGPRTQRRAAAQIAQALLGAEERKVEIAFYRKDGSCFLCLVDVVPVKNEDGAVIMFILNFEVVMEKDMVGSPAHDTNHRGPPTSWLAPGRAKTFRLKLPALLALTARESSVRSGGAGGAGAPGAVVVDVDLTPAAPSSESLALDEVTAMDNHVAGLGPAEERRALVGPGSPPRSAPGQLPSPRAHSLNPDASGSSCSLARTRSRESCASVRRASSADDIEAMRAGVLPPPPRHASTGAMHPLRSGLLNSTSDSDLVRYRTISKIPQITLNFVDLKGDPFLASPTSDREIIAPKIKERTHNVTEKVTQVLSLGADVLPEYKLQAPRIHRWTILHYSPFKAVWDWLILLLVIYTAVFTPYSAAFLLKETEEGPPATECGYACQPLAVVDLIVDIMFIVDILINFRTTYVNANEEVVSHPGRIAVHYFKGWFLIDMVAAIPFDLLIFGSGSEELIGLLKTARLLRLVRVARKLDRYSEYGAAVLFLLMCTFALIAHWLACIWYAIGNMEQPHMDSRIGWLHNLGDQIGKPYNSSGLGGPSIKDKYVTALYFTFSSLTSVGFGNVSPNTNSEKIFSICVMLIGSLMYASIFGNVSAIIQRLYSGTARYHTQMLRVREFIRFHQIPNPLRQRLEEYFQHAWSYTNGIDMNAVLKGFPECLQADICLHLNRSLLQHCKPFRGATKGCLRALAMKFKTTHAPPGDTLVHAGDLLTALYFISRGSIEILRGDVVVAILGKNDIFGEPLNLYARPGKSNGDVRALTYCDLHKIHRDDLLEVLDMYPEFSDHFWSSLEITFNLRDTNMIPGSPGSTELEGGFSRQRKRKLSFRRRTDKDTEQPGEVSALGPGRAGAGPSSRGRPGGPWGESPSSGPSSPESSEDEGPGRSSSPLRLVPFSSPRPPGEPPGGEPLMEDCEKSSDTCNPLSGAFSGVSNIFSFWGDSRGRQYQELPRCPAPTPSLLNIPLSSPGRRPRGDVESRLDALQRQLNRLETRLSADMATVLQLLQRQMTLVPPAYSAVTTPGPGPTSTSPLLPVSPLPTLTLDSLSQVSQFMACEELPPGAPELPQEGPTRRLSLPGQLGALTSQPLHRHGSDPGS
row,SMILES,"hERG current change (%, negative = inhibition) at 10uM [%]"
1,CN(C)CCOc1ccccc1-c1ccccc1.O=C(O)C(=O)O,-4.52
2,Cc1cccc(C(=O)NC(=S)NCc2ccccc2)c1,8.18
3,Cc1ccc(-c2noc(CSc3nnc(Cc4ccccc4)n3-c3ccc(Cl)cc3)n2)cc1,27.2
4,CN1CCN(C(=O)c2ccc3nc(-c4ccccc4)c(-c4ccccc4)nc3c2)CC1,6.03
5,Cc1ccc(C)c(NC(=S)N2CCC(c3nc4ccccc4s3)CC2)c1,5.95
6,CCc1ccc(OCC(=O)NC(NC(=S)Nc2ccc(C)cc2C)C(Cl)(Cl)Cl)cc1 (stereo not shown),5.54
7,CCOC(=O)Cc1csc(NC(=O)CC(C)(C)CC(=O)O)n1,3.83
8,Cc1ccc(-c2n[nH]c(=S)n2/N=C/c2c(C)nn(-c3ccccc3)c2C)cc1,-34.5
9,CCc1nc(N)c(C#N)c(-c2ccccc2OC)c1C,-14.1
10,O=C(O)C(O)(c1ccccc1)C1CCCCC1 (stereo not shown),-14.1
11,CCOC(=O)N1N=C(C)CC1(O)c1ccc(Cl)cc1 (stereo not shown),11.9
12,CC(C)C(=O)Nc1nnc(CSCc2ccccc2F)s1,-3.32
13,COc1ccc(CCNC(=O)C(C(=O)c2ccc(F)cc2)n2ccccc2=O)cc1OC (stereo not shown),-0.85
14,Cc1ccc(NC(=O)Cn2nnc(C(=O)NCc3ccc(Cl)cc3)c2N)cc1F,13.7
15,O=C(O)c1cc([N+](=O)[O-])c(N2CCCC2)c([N+](=O)[O-])c1,2.9
16,CC1(c2ccc(OCC#N)cc2)C=C(c2ccc(OCC#N)cc2)n2nc(C(F)(F)F)nc2N1 (stereo not shown),-9.2
17,Cc1ccc(-c2noc(CNC(=O)COc3ccccc3C)n2)cc1,4.55
18,Cc1ccc(Cn2c(=N)c(S(=O)(=O)c3ccc(Br)cc3)cc3c(=O)n4ccccc4nc32)cc1,-6.27
19,CN(C)CC(=O)N1CCc2ccccc2C1.O=C(O)C(=O)O,13.2
20,CC(C)(C)NC(=O)CCn1nc(-c2ccc(Cl)cc2)c2ccccc2c1=O,-32.3
21,Fc1cccc(CN2CCN3CCCC3C2C2CCCCC2)c1 (stereo not shown),-8.93
22,COc1cc(C(=O)NCCc2ccccc2)ccc1OCC(=O)N1CCOCC1,3.77

row,SMILES,"hERG current change (%, negative = inhibition) at 10uM [%]"
1,CCOC(=O)c1cnc(Nc2nc3ccccc3o2)nc1CSC(=S)N1CCCCC1,10
2,N#CCCN(C(=O)CSc1nc2nc(-c3cccs3)cc(C(F)(F)F)c2c(=O)[nH]1)c1ccccc1,19.9
3,C=C1C[C@@]23CCC4[C@@](C)(CCC[C@@]4(C)C(=O)OC)C2CC[C@]1(OC(C)=O)C3 (stereo partly shown),10.8
4,CN1C(=O)C(CC(=O)Nc2ccc(F)cc2)N(NC(=O)c2cccc(F)c2)C1=S (stereo not shown),-3.79
5,O=C(N/N=C/c1ccc[nH]1)c1ccc2c(c1)OCO2,13.9
6,Cc1cc(-c2nnnn2-c2ccc(C(F)(F)F)cc2)no1,-4.29
7,Cc1nn(-c2ccccc2)c(Cl)c1/C=N/NC(=O)CCNc1n[nH]c(=O)[nH]c1=O,13.1
8,CCOC(=O)C1CCN(C(=O)C2CCN(S(=O)(=O)N3CCCC3)CC2)CC1,-64.9
9,Cc1ccc(/C=C2\NC(=S)NC2=O)cc1[N+](=O)[O-],22.7
10,COc1ccc(NC(=O)CCC(=O)OCc2ccc([N+](=O)[O-])cc2)cc1,-4.12
11,CC(=O)N1N=C(c2ccco2)CC1c1cccs1 (stereo not shown),16
12,COc1c2c(nc3occc13)C(CC=C(C)C)(OC)C(O)CC2 (stereo not shown),5.5
13,COc1ccc(CCC(=O)NCc2cn3ccc(C)cc3n2)cc1,-52
14,O=C(NCC(O)c1ccccc1)Nc1cccs1 (stereo not shown),12.6
15,Cc1ccc(-c2nnc(SCC#CCOC(=O)c3cccs3)o2)cc1,14.3
16,COc1ccc(S(=O)(=O)NCc2ccccn2)cc1NC(=O)c1ccc(Cl)cc1,-68.8
17,O=C(COc1ncnc2ccc(Br)cc12)NCc1ccc2c(c1)OCO2,-2.32
18,FC(F)(F)c1ccnc(NCc2ccco2)n1,8.44
19,COc1cc(NS(=O)(=O)c2c(C(=O)N3CCOCC3)c(C)n(C)c2C)cc(OC)c1OC,12.4
20,CCOc1ccc(-n2c(SCc3ccc([N+](=O)[O-])cc3)nnc2-c2ccccc2)cc1,4.93
21,Cc1ccc2cc(CCNC(=O)c3cc4ccccc4o3)c(=O)[nH]c2c1C,8.51
22,Cc1ccccc1N(C(=O)Cc1cccs1)C(C(=O)NC1CCCCC1)c1cn(C)nc1C (stereo not shown),-9.52

row,SMILES,"hERG current change (%, negative = inhibition) at 10uM [%]"
1,O=C(c1cc(F)ccc1F)C1CCCN(Cc2ccc3nonc3c2)C1 (stereo not shown),-12
2,CNS(=O)(=O)c1cn(CC(=O)NCc2ccc(N(C)C)cc2)cc1S(=O)(=O)NC,2.01
3,CCCN(CCC)C(=O)Cn1ccc(=N)c2ccccc21.Cl,7.03
4,Cc1cccc(NC(=O)C2CCCN(C(=O)NC3CCCCC3)C2)c1C (stereo not shown),-3.65
5,CC(C)(C)c1ccc(OCC(=O)NNC(=O)Cc2cccs2)cc1,-28.8
6,CCc1c(C)sc(NC(=O)Cc2ccccc2C)c1C(=O)N1CCOCC1,16.1
7,O=C(CNS(=O)(=O)c1cccs1)NCCc1ccc(Cl)cc1,-9.57
8,COC(=O)CN1C(=O)C(O)(CC(=O)c2ccc(C)o2)c2ccccc21 (stereo not shown),13.6
9,Cc1nnc(SCC(=O)NNC(=O)c2ccccc2)n1-c1ccccc1,0.302
10,CC(Oc1cccc(Cl)c1)C(=O)Nc1ccccc1N1CCCCC1 (stereo not shown),0.371
11,COC(=O)c1ccc(COC(=O)c2ccccc2OC)cc1,0.631
12,Cc1ccc(NC(=S)N(CCCN2CCCC2)Cc2cccn2Cc2ccc(Cl)cc2)cc1Cl,6.99
13,COc1ccc(C(=O)C2CN(C)CC2c2ccc(Cl)cc2)cc1 (stereo not shown),-73.1
14,COc1ccccc1NC(=O)C1=C(C)Nc2ncnn2C1c1ccc(C)o1 (stereo not shown),7.95
15,Fc1cccc(Cl)c1CSc1nnc(COc2cccc3cccnc23)o1,-10.4
16,CCOC(=O)C1C(c2ccccc2)NC(=S)NC1(C)O (stereo not shown),24.8
17,CCC(C)(C)c1ccc(OCCCC[n+]2ccc(C)cc2)c(C(C)(C)CC)c1.[Br-],-75.7
18,CCN(CC)S(=O)(=O)c1ccc2[nH]c(=O)c3ccccc3c2c1,-1.85
19,COc1cccc(N2CC(C(=O)Nc3nnc(SCC(=O)Nc4cc(C)on4)s3)CC2=O)c1 (stereo not shown),11.3
20,O=C(NC1CC1)c1ccc(-n2cccc2)cc1,21.1
21,COc1cc(/C=N/NC(=O)C(Cc2c[nH]c3ccccc23)NC(=O)OCC(C)C)cc([N+](=O)[O-])c1O (stereo not shown),12.8
22,CCC(=O)NCCc1nc2ccccc2[nH]1,1.08

row,SMILES,"hERG current change (%, negative = inhibition) at 10uM [%]"
1,COc1ccc(C(=O)N2CCN(c3ccccc3OC)CC2)cc1,21
2,COc1cccc(NC(=S)/C(=C(\[O-])c2ccc(C)c([N+](=O)[O-])c2)[n+]2ccccc2)c1,-12.9
3,O=S(=O)(NCCC(c1ccc(F)cc1)c1ccco1)c1ccccc1 (stereo not shown),-7.77
4,Cc1ccc(S(=O)(=O)N(CC(O)CN2C(=O)NC(C)(C)C2=O)c2cccc([N+](=O)[O-])c2)cc1 (stereo not shown),1.04
5,Cn1c(SCC(=O)Nc2ccc(NC(=O)c3cccc(F)c3)cc2)nnc1-c1ccncc1,9.76
6,c1cc2c3c(cccc3c1)NC1(CCCCCC1)N2,-0.708
7,C/C(=N/NC(=O)CSc1nc2ccccc2n1C)c1ccco1,-1.16
8,O=C(CSc1nccc(=O)[nH]1)Nc1ccc(F)c([N+](=O)[O-])c1,2.7
9,CCCNC(=O)COc1coc(CN2CCN(Cc3ccccc3)CC2)cc1=O,9.76
10,COc1cccc(OC)c1C(=O)NC(=S)Nc1cc(-c2nc3ccccc3[nH]2)ccc1Cl,1.06
11,CN1CCN(c2ncnc3sc(-c4ccccc4)cc23)CC1,-49.4
12,CCOCCCNC(=O)c1cc2c(s1)-c1ccccc1SC2,-5.28
13,CCNC(=O)NC(=O)COC(=O)c1cccc(S(=O)(=O)N2CC3(C)CC2CC(C)(C)C3)c1 (stereo not shown),-7.09
14,O=C(NCCS(=O)(=O)NC1CCCC1)c1ccccc1,-0.0158
15,CCn1ccnc1CC1COc2ccccc2O1.Cl (stereo not shown),-8.07
16,COC(=O)NC(Nc1sc2c(c1C(N)=O)CCCC2)(C(=O)OC)C(F)(F)F (stereo not shown),19.7
17,COC(=O)CCc1n[nH]c(=O)[nH]c1=O,4.98
18,O=C(Nc1ncccc1O)c1ccc(S(=O)(=O)N2CCCCCC2)cc1,5.29
19,COC(=O)[C@@H](N)Cc1ccc(O)cc1,18.3
20,COc1ccc(NC2CCCN(Cc3cccc4cnccc34)C2)cc1 (stereo not shown),-18.5
21,COc1ccccc1NC(=O)CCn1cccc1,8.38
22,CC(C)(C)C1CCc2c(C(=O)NNC(=O)CCC(=O)O)csc2C1 (stereo not shown),3.34
